{"source": "PubChem BioAssay AID1671193", "about": "(National Center for Advancing Translational Sciences (NCATS), 2021)", "note": "In all, about 150,000 compounds went through this assay and about 180 (0.12%) were called active. The shares of active, inactive and inconclusive entries below differ from those in the screen. Calls follow the shape of the dose curve; as a rule, active = well fitted cell-killing curve with a large enough effect; inconclusive = small, poorly fitted or top-dose-only effect, or effect the other way; inactive = flat fitted curve, though single readings scatter. Potencies beside an inconclusive call are fits to weak or partial responses and may not hold up.", "data": [{"assay": "GF-AFC viability counterscreen for inhibitors of alpha-synuclein gene (SNCA) expression; also: nearly all actives have a fitted effect of over 30% in size; also: potency is read from the fitted curve at half-maximal effect; tags tell the direction and shape of the fitted curve;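 as to activity change, negative = cytotoxicity: 0% = DMSO-treated cells and -100% = medium-only wells without cells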", "settings": "HEK-293-SNCA-luc viability, GF-AFC fluorescence, 24 h; activity change, negative = cytotoxicity: at 57.1 µM (top of the series) unless noted", "how_it_was_run": "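HEK-293-SNCA-luc cells (1500/well) plated 24 h, then exposed 24 h to a dilution series; GF-AFC added 30 min at 37C, fluorescence 405/540 nm; normalised to medium-only and DMSO wells, Hill fit.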", "values": [{"compound": "CC(=O)OC(C)(C)/C=C/C(=O)[C@](C)(O)[C@H]1C(O)C[C@@]2(C)[C@@H]3CC=C4[C@@H](C=C(O[C@@H]5O[C@H](CO)[C@@H](O)[C@H](O)[C@H]5O)C(=O)C4(C)C)[C@]3(C)C(=O)C[C@]12C", "note": "(stereo not given in full)", "Potency": "inconclusive: 12.6 µM [rising, partial curve, poor fit]"}, {"compound": "COc1ccc(-c2nc3cnc(N4CCOCC4)nc3n(C3CC3)c2=O)cc1", "Potency": "inconclusive: 17.8 µM [rising, partial curve]"}, {"compound": "Cc1[nH]nc(C(F)(F)F)c1Cc1sc2c(c1C(=O)N1C[C@](C)(O)CO1)c(=O)n(C)c(=O)n2C(C)C", "Potency": "inconclusive: 2.67 µM [cytotoxic, single point]"}, {"compound": "CC1=C[C@@H](CNC(=O)Cc2ccccc2)[C@H](C(C)C)C[C@H]1Cc1nc2ccncc2[nH]1", "Potency": "inconclusive: 56.2 µM [cytotoxic, partial curve, poor fit]"}, {"compound": "COc1ccc(-c2nc3scc(CCNS(=O)(=O)c4cc(F)ccc4OC)n3n2)cc1OC", "Potency": "inconclusive: 39.8 µM [cytotoxic, single point]"}, {"compound": "COc1cc2ncnc(Nc3cccc(Cl)c3)c2cc1OC", "Potency": "inconclusive: 0.607 µM [cytotoxic, full curve]"}, {"compound": "CC(C)(O)/C=C/C(=O)[C@](C)(O)[C@H]1[C@H](O)C[C@@]2(C)[C@@H]3CC=C4[C@@H](C[C@H](O[C@@H]5O[C@H](CO)[C@@H](O)[C@H](O)[C@H]5O)C(=O)C4(C)C)[C@]3(C)C(=O)C[C@]12C", "Potency": "inconclusive: 7.07 µM [cytotoxic, partial curve, poor fit]"}, {"compound": "CN(C)C(=O)N1CCC(c2nn(-c3ccccn3)c(=O)[nH]2)CC1", "Potency": "inactive"}, {"compound": "CC[C@H]1CN(S(=O)(=O)c2ccc(OC)cc2)CC[C@H]1CC(=O)N1CCC(C(=O)OC)CC1", "Potency": "inactive"}, {"compound": "Cc1noc(-c2ccn3c(CNC(=O)C(C)c4ccccc4)nnc3c2)n1", "note": "(stereo not given)", "Potency": "inactive"}, {"compound": "O=C(NCCc1ccc(F)cc1)C1CCCCN1Cc1ccc(-c2cccs2)cc1", "note": "(stereo not given)", "Potency": "inactive"}, {"compound": "COc1ccccc1NC(=O)CSC1=Nc2ccccc2C2=NC(CC(=O)NCCc3ccccc3)C(=O)N12", "note": "(stereo not given)", "Potency": "inconclusive: 39.8 µM [cytotoxic, single point]"}, {"compound": "Oc1ccc(/C=C/c2nc(-c3ccccc3O)n(-c3ccccc3)n2)c(O)c1", "Potency": "inconclusive: 44.7 µM [cytotoxic, single point]"}, {"compound": "O=c1c(-c2cccs2)nc2cnc(N3CCNCC3)nc2n1CCc1ccccc1", "Potency": "inconclusive: 20 µM [rising, partial curve]"}, {"compound": "CCN1c2cc(C(=O)Nc3cccc(SC)c3)ccc2C(=O)N2CCCCCC21", "note": "(stereo not given)", "activity change, negative = cytotoxicity": "inactive: 1.28% [at 12.5 µM]"}]}]}
